Laboratory results published in the supplement of paper PMC11417369.
± gives the standard deviation of the averaged measurements. This is one part of the list.

What follows are sequences tested on PfAP2-G AP2 domain (GST-tagged) (assay: gcPBM binding intensity (ln(normalized median fluorescence intensity)); higher = stronger DNA binding).
Outline: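 Using an Agilent 4 × 180k array, primer-extended double-stranded 36-bp intergenic genomic probes and negative controls were exposed for 1 h to GST-fused P. falciparum DNA-binding domains expressed in E. coli. Binding was carried out in 1× PBS with 1% milk, 0.2 mg/ml BSA, 0.5% salmon testes DNA and 0.03% Triton X-100, and protein was detected with Alexa488 anti-GST antibody and a 488 nm scan. Binding intensity is the highest Masliner-normalised natural-log median intensity across replicate spots of either probe orientation.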
With “AACAAGAAATAATCACGTACACATTATAATAACTAA [XGTACX_site8184]” the “gcPBM binding intensity (ln)” value was 11.5 ± 0.9. “CTTTAATATTTTATTTCACACACATAAATGCCCCAA [CACACA_site8569]” was tested, and the “gcPBM binding intensity (ln)” value was 10.4 ± 0.41. For “AAAAAAAAAGATCACACACACATAAATATAAACAAA [CACACA_site5285]”, the “gcPBM binding intensity (ln)” value was 9.995 ± 0.007. With “TGATATTATTATAAGGTGCTTAAAAATAAAGATAAT [GTGCAC_site9539]” the “gcPBM binding intensity (ln)” value was 9.88 ± 0.2. For “AAAAAAAAAAAAAAAAAAAAAAAAAAAAGTTAAAAA [TGCATGCA_negctrl_site74]”, the “gcPBM binding intensity (ln)” value was 10.9 ± 0.4. With “AGAATTTTAGATTTAGCACACATTTTTTTTTTTTTT [CACACA_site4081]” the “gcPBM binding intensity (ln)” value was 9.955 ± 0.049. With “ACTCGCATATTTAAATGTACTTAATTAGAAGAAAAA [XGTACX_site3304]” the “gcPBM binding intensity (ln)” value was 11.1 ± 0.69. In the case of “ATATAAAATAATAAGGGTACAGGTCTCTGCGATGTT [XGTACX_site786]”, the “gcPBM binding intensity (ln)” value is reported as 11.3 ± 0.81. “TAAAATATTGTTATTACATGCAACCTTATGAAAAAT [TGCATGCA_site706]” was tested, and the “gcPBM binding intensity (ln)” value was 9.99 ± 0.15. With “AATAACTTTTTGAGATGTACATTTTTAATTCGTAGA [XGTACX_site8455]” the “gcPBM binding intensity (ln)” value was 11.2 ± 0.83. With “ATTCATAAAAAGAGGTGTACATTAATATAATATATA [XGTACX_site8283]” the “gcPBM binding intensity (ln)” value was 11.5 ± 0.95. With “TTATTCGAACAAAGGAAAAAATATATTCAAAGGAAA [TGCATGCA_negctrl_site215]” the “gcPBM binding intensity (ln)” value was 9.73 ± 0.11. “AACTTGTGTGGATATTGTACTAACAATATGTATGAT [XGTACX_site6302]” was tested, and the “gcPBM binding intensity (ln)” value was 11 ± 0.72. In the case of “AATAGTGTATAAATTTGTACATATAATTAAAAGGAA [XGTACX_site1143]”, the “gcPBM binding intensity (ln)” value is reported as 11 ± 0.67. For “ACTTTAATAATTCACTTATTTTCTTATTATATTATT [CACACA_negctrl_site556]”, the “gcPBM binding intensity (ln)” value was 9.8 ± 0.21. For “GGATTTATTTTATATACACACATACCTATATTTATA [CACACA_site7084]”, the “gcPBM binding intensity (ln)” value was 9.91 ± 0.028. In the case of “TTTTTAACTAACATATCAATTCCATACGTCGTCAAA [CACACA_negctrl_site560]”, the “gcPBM binding intensity (ln)” value is reported as 9.98 ± 0.099. For “TTTAAAAATTTGATCAAACACACGTTGCATAAATTA [CACACA_site3945]”, the “gcPBM binding intensity (ln)” value was 10.1 ± 0.14. With “TTTTGTCTTCAAATCAAATGTATATAAAAAAAATAC [CACACA_negctrl_site1717]” the “gcPBM binding intensity (ln)” value was 10.1 ± 0.27. For “TCTATATAATACCAATGTACATAGTTTTAAGCATAA [XGTACX_site1889]”, the “gcPBM binding intensity (ln)” value was 10.8 ± 0.49. “AGGATATGCAGACACACACACATATAGATTTATATA [CACACA_site7100]” was tested, and the “gcPBM binding intensity (ln)” value was 9.96 ± 0.13. With “AAAACAAAAATATAAACACACATACATTGGTTTTCT [CACACA_site5405]” the “gcPBM binding intensity (ln)” value was 9.85 ± 0.16. “ATAATATAAACATACACACACACATATATATATATA [CACACA_site5591]” was tested, and the “gcPBM binding intensity (ln)” value was 10.1 ± 0.23. “ATAAATTGTAAAATGTGTACGCAGATATTGCGTATT [XGTACX_site332]” was tested, and the “gcPBM binding intensity (ln)” value was 11.5 ± 0.93. With “AAAAAAATTAATGTGTGTACTTAGATATAATGTTTA [XGTACX_site8862]” the “gcPBM binding intensity (ln)” value was 11.3 ± 0.8. In the case of “TAATTTTTTTTTTATTGTACTTAATATTTTTAATTT [XGTACX_site5929]”, the “gcPBM binding intensity (ln)” value is reported as 11.3 ± 0.8. “CATAAAAATGGATACACACACATAATATATATATAT [CACACA_site3619]” was tested, and the “gcPBM binding intensity (ln)” value was 10.2 ± 0.3. For “TATTTTTTTTTTTTTTTTTTTACCTTTCCACTCAAA [CACACA_negctrl_site1454]”, the “gcPBM binding intensity (ln)” value was 9.84 ± 0.34. With “TCATTCTAAATATAAACACACATAAATATGTACATT [CACACA_site7555]” the “gcPBM binding intensity (ln)” value was 11.2 ± 0.9. With “TTTTTTTTTTTTAAAAGTACATAGTAGTAATTATAG [XGTACX_site4232]” the “gcPBM binding intensity (ln)” value was 11.3 ± 0.95. In the case of “TTACAAATATTATAAAGTACAAACCAGTAGATTTTG [XGTACX_site2272]”, the “gcPBM binding intensity (ln)” value is reported as 11 ± 0.7. With “TTTTTTTTTTTTAATGCACACAGTGAACTTTTACTT [CACACA_site3567]” the “gcPBM binding intensity (ln)” value was 10.2 ± 0.4. For “GACATTTCTTGGGATACATGCATGTCCCAGAACAAA [TGCATGCA_site271]”, the “gcPBM binding intensity (ln)” value was 10.6 ± 0.4. In the case of “TTTAATAAATTGTGTACACAAAACATATAAATTTCG [CACACA_site5644]”, the “gcPBM binding intensity (ln)” value is reported as 11.6 ± 0.89. For “ATTTCATACAGACACACACACAAACAAACATATATA [CACACA_site979]”, the “gcPBM binding intensity (ln)” value was 10.2 ± 0.22. In the case of “GTGAAGGTTTATATGTGTACATATATGTATTATATA [XGTACX_site326]”, the “gcPBM binding intensity (ln)” value is reported as 11.4 ± 0.73. In the case of “ATTATATATACATATACACACATACGTACATACATA [CACACA_site9194]”, the “gcPBM binding intensity (ln)” value is reported as 11.5 ± 0.93. With “TTATTATTCATATATTCACACATTAAAATTTTTCAA [CACACA_site4243]” the “gcPBM binding intensity (ln)” value was 9.85 ± 0.028. For “CATATATAATAATATTGTACATATATAATAATAATA [XGTACX_site3338]”, the “gcPBM binding intensity (ln)” value was 10.9 ± 0.6. For “ATTATCAAGACATTGCGTACTTAAAAAAAAAAAAAT [XGTACX_site6347]”, the “gcPBM binding intensity (ln)” value was 11.4 ± 0.93. “TTTATTTATTTATTCTTATTTTTTTTTTTTTTTACT [CACACA_negctrl_site257]” was tested, and the “gcPBM binding intensity (ln)” value was 9.425 ± 0.064. For “ACATATTAGGGTCATGAACACACAAAAAAAAAAAAA [CACACA_site8218]”, the “gcPBM binding intensity (ln)” value was 10.4 ± 0.57. With “TATAAATAAATAAACACACACAAATAAAATAAAAAA [CACACA_site7623]” the “gcPBM binding intensity (ln)” value was 9.915 ± 0.021. With “TTTTTTTGCCATATTACACACACACCGGTAAACCCC [CACACA_site8475]” the “gcPBM binding intensity (ln)” value was 10.7 ± 0.61. With “TAATACATAAATGATTGTACATAAGAATTGAAACAT [XGTACX_site4583]” the “gcPBM binding intensity (ln)” value was 10.9 ± 0.47. “ATGAAGATTTAAAAATGTACATATGATCTATGTCCT [XGTACX_site8409]” was tested, and the “gcPBM binding intensity (ln)” value was 10.8 ± 0.39. “AATTCAGCTTTACAACGTACACAATCATATGTCTAT [XGTACX_site8113]” was tested, and the “gcPBM binding intensity (ln)” value was 11.3 ± 0.93. In the case of “TATGACACTTTGAAGGGTACATGCAGAAAAAAAAAA [XGTACX_site569]”, the “gcPBM binding intensity (ln)” value is reported as 11.1 ± 0.74. “ATATATACATATACTATATCTTTTATTTTTATTATT [GTGCAC_negctrl_site127]” was tested, and the “gcPBM binding intensity (ln)” value was 9.74 ± 0.27. For “TTATATGCACTTTTTGCACACGTATGAATAACAAAA [CACACA_site1811]”, the “gcPBM binding intensity (ln)” value was 10.7 ± 0.49. In the case of “TCTAGGAAAAATTATAGTACACAAAAATATATATAT [XGTACX_site4136]”, the “gcPBM binding intensity (ln)” value is reported as 11.3 ± 0.8. “GGATATATTTTATGTACACACACATATAAGGGATTA [CACACA_site4181]” was tested, and the “gcPBM binding intensity (ln)” value was 11.4 ± 0.79. With “TATATATATTAAAAACGTACAAAATAAGAATTAATT [XGTACX_site5979]” the “gcPBM binding intensity (ln)” value was 11.3 ± 0.76. With “TATATATATTATATATGTACACATATGTGAGAATGA [XGTACX_site2992]” the “gcPBM binding intensity (ln)” value was 11.5 ± 0.88. In the case of “TTGTTTTGCTAAAAATGTACTCTATATAAAAGCTTT [XGTACX_site4027]”, the “gcPBM binding intensity (ln)” value is reported as 11.1 ± 0.65. “CAAAAACATACCTACACACACAATATGTATAAATAA [CACACA_site7617]” was tested, and the “gcPBM binding intensity (ln)” value was 10.14 ± 0.085.
